According to PubChem BioAssay AID686971 (National Center for Advancing Translational Sciences (NCATS), 2013):
Among all 360,000 compounds or so, about 7,500 (2.1%) were called active. Inconclusive results, whose numbers are uncertain, are shown with a selection of clear calls. Calls come from the whole dose curve; as a rule, active = well fitted cell-killing curve with a large enough effect; inconclusive = small, poorly fitted or top-dose-only effect, or effect the other way, or another doubt; inactive = no such curve, though single readings can be large or run the other way. No potency is given beside an inconclusive call; the fits are too rough.

test: qHTS for induction of synthetic lethality in tumor cells producing 2HG: qHTS for the HT-1080-IDH1KD cell line; details: HT-1080 IDH1 knockdown viability, ATP luminescence, 48 h; activity, negative = toxicity: at 46.1 µM (top of the series) unless noted;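 for activity, negative = toxicity: 0% = DMSO wells and -100% = cell-free medium wells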
Outline: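 CellTiter-Glo luminescence after 48 h compound exposure at 37 degrees C of IDH1-knockdown HT-1080 cells in 5% FBS RPMI. %Activity scaled between DMSO wells and cell-free media wells, with curves fitted and assigned curve classes.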
Potency is the fitted concentration of half-maximal effect; tags give direction and shape of the fitted curve.

| Structure (SMILES) | activity, negative = toxicity | Potency |
| --- | --- | --- |
| CN1C2C=C3C(C#N)=C(N)C(C#N)(C#N)[C@@H](c4ccc(Cl)cc4)[C@@H]3C1CC2 (some centres not stated) | inactive: -6.55% [at 9.24 µM] |  |
| CCOc1cccc(/C=N/NC(=O)c2ccc3c(c2)OCCO3)c1O |  | inconclusive [cytotoxic, partial curve] |
| OCC(CO)(CO)N=Cc1cc(Br)ccc1O | inactive: -17.8% |  |
| CCc1cc2c3c(c1)C1(C(=O)N3C(C)(C)CC2C)C(C#N)=C(N)N2C(=C1C#N)Nc1ccccc12 (configuration not stated) |  | inconclusive [cytotoxic, single point] |
| CN=C(Nc1ccc(Br)cc1)SC1CC(=O)N(c2ccc(OC)cc2)C1=O (configuration not stated) |  | inconclusive [cytotoxic, single point] |
| CC(=O)Nc1ccc(C(=O)N2CCCCC2c2cc(C(=O)N3CCOCC3)no2)cc1 (configuration not stated) | inactive: 0% |  |
| Cc1c(NC=C(C#N)C#N)c(=O)n(-c2ccccc2)n1C | inactive: -10.3% |  |
| COc1ccc(-c2cn(Cc3ccc(C(N)=O)cc3)c(-c3ccncc3)n2)cc1 |  | inconclusive [cytotoxic, partial curve] |
| COc1cc(NC(=O)Nc2cccc([N+](=O)[O-])c2)cc(OC)c1 |  | inconclusive [cytotoxic, single point] |
| CCC(C)C(=O)N1c2ccccc2C(=C2SC(C(=O)OC)=C(C(=O)OC)S2)C(=S)C1(C)C (configuration not stated) |  | inconclusive [cytotoxic, single point] |
| NC(=O)c1ccccc1NC(=O)CN1CCN(Cc2ccccc2)CC1 | inactive: 11.4% |  |
| CN(C)CCCNC(=O)c1cc2sc3ccccc3c2s1 |  | active: 18.4 µM |
| COc1ccc(F)cc1-c1cc(NC=O)c2ncc(-c3cc(OC)c(OC)c(OC)c3)n2c1 |  | inconclusive [cytotoxic, full curve] |
| Nc1nnc(SCc2ccc(F)cc2Cl)s1 | inactive: 7.83% |  |
| CC(=O)Nc1cccc(-c2ccnc3c2CC(C)(C(=O)NCCc2ccccc2)O3)c1 (configuration not stated) |  | inconclusive [cytotoxic, full curve] |
| COc1ccc(C(=O)N/N=C2\CCS(=O)(=O)c3ccc(F)cc32)cc1OC |  | active: 20.6 µM |
| C=C1C[C@@H]2C[C@@H]2CN(S(=O)(=O)c2ccc(C)cc2)[C@@H]1COCc1ccccc1 |  | inconclusive [cytotoxic, single point] |
| Cc1ccc(/C=C/C(=O)c2ccccc(=O)c2O)c(C)c1 |  | active: 18.4 µM |
| Brc1ccccc1OCCCCn1cnc2ccccc21 |  | inconclusive [cytotoxic, single point] |
| COc1ccc(NC(=O)c2nc[nH]c2C(=O)N(C)Cc2ccccc2)cc1 | inactive: 11.1% |  |
| CCOC(=O)C1(CCc2ccccc2)CCN(C(=O)CCn2cncn2)CC1 | inactive: 16.2% |  |
| CCOC(OCC)c1cc2ccccc2cn1 | inactive: 5.1% |  |
| CC(=O)CC1c2cc(F)ccc2C=C(c2ccsc2)N1c1ccc(C#Cc2cncn2C)cc1 (configuration not stated) |  | inconclusive [cytotoxic, single point] |
| O=C(Cn1cnc2ccccc2c1=O)Nc1ccc2c(c1)CCC2 |  | inconclusive [cytotoxic, single point] |

| Structure (SMILES) | activity, negative = toxicity | Potency |
| --- | --- | --- |
| CCc1ccc(-c2cc(C)no2)cc1S(=O)(=O)NCc1ccco1 |  | inconclusive [cytotoxic, single point] |
| Cc1ccc(C(=O)N/N=C(/CC(=O)c2cccs2)C(F)(F)F)cc1 |  | inconclusive [cytotoxic, single point] |
| COc1ccc2c(c1)C[C@]1(C)c3ccccc3C(=O)N(Cc3ccccc3)[C@H]21 |  | inconclusive [cytotoxic, single point] |
| O=C(Nc1ccccc1)[C@@H]1CC=C[C@@H]2CCN(Cc3ccccc3)C(=O)[C@@H]21 | inactive: 14.6% |  |
| CCn1c2ccccc2c2cc(NC(=O)c3cccc([N+](=O)[O-])c3C)ccc21 |  | active: 13 µM |
| CC(C)c1ccc(C(C)NCCS(=O)(=O)c2ccc(Br)cc2)cc1 (configuration not stated) |  | inconclusive [cytotoxic, single point] |
| CC(=O)/C(=N/Nc1cccc(C)c1)N1CCOCC1 |  | inconclusive [cytotoxic, partial curve] |
| O=Nc1c(O)n(Cc2c(Cl)cccc2Cl)c2ccccc12 |  | inconclusive [cytotoxic, partial curve] |
| Oc1ccc(C[C@H]2CN([C@@H](Cc3ccc(O)cc3)CN3CCC[C@@H]3CN3C(=S)NC[C@@H]3Cc3ccccc3)C(=S)N2CCc2ccccc2)cc1 |  | inconclusive [cytotoxic, single point] |
| COc1ccc(C(NC(C)=O)c2ccc3cccnc3c2O)c(OC)c1 (configuration not stated) |  | active: 6.51 µM |
| CN1CCN(c2nc3c(c(=O)[nH]c(=O)n3C)n2CCCSc2nnnn2-c2ccccc2)CC1 | inactive: 0.719% |  |
| O=C1NC(c2cccc(Cl)c2)Nc2ccccc21 (configuration not stated) |  | inconclusive [cytotoxic, single point] |
| CCN1CCN(c2nc3sc4c(c3c(=O)n2-c2ccc(OC)cc2)CCCCC4)CC1 |  | inconclusive [cytotoxic, single point] |
| CCn1c(=O)cc(OCC(=O)Nc2ccccc2C#N)c2ccccc21 | inactive: 3.09% |  |
| CCCCCCn1c(=O)n2n(c1=O)C[C@]1(OC(=O)Nc3c(C)noc3C)CN(S(=O)(=O)c3ccc(C)cc3)C[C@]1(O)C2 | inactive: -0.789% |  |
| CCc1c(C)nc2ncnn2c1N1CCC(C(=O)NCc2cccc(OC)c2)CC1 |  | inconclusive [cytotoxic, single point] |
| COc1ccc(NC(=O)c2ccc(CNS(=O)(=O)c3cccc(OC)c3)cc2)cc1 |  | inconclusive [cytotoxic, partial curve] |
| COC(=O)[C@@]12C[C@@H](CC(=O)N3CCN(C(=O)C4CC4)CC3)C(=O)N(Cc3cccc4ccccc34)C1=CCC(C)(C)C2 |  | inconclusive [cytotoxic, single point] |
| C/C(=N\NC(=O)c1ccccc1O)c1cccs1 |  | inconclusive [cytotoxic, single point] |
| O=C(C[n+]1ccccc1)N/N=C/c1cc(Br)cc(Br)c1O |  | inconclusive [cytotoxic, single point] |
| Cc1ccc2c(c1)[C@H]1[C@H](CO2)[C@H](c2ccccc2)[C@]2(C)C(=O)Nc3cc(F)ccc3C(=O)N12 |  | active: 8.2 µM |
| Cc1cc2c(c(=O)o1)C(c1ccc([N+](=O)[O-])o1)C(C#N)=C(N)O2 (configuration not stated) | inactive: 3.77% |  |
| CCCCOc1ccc(-c2c(C#N)c(N)nc(SCC(N)=O)c2C#N)cc1 |  | inconclusive [cytotoxic, single point] |
| COC(=O)Cc1ccc(OC2(C)CCN(Cc3ccc(-c4ccccn4)cc3)C2)cc1 (configuration not stated) | inactive: -23.2% |  |

| Structure (SMILES) | activity, negative = toxicity | Potency |
| --- | --- | --- |
| Cc1cccc(-c2ccc(O)cc2CN2CCN(c3ncc(Cc4ccccc4)cn3)CC2)c1 |  | inconclusive [cytotoxic, single point] |
| COc1ccc(CN2CCC(C)(Oc3ccc(C(C)=O)cc3)C2)c2ccccc12 (configuration not stated) |  | inconclusive [cytotoxic, partial curve, poor fit] |
| COc1ccc(-c2ccc(SC)nn2)cc1 |  | active: 23.1 µM |
| COc1ccc2sc(-c3ccc(S(C)(=O)=O)cc3)c(C#Cc3cncn3C)c2c1 |  | inconclusive [cytotoxic, single point] |
| COC(=O)c1ccc(/C=N/N2CCN(Cc3ccccc3)CC2)cc1 | inactive: 2.6% |  |
| CCOC(=O)c1c(-c2cccc(C)c2)csc1NC(=O)c1c(-c2ccccc2)noc1C |  | inconclusive [cytotoxic, full curve] |
| Cc1ccc2nc(-c3ccccc3)cc(C(=O)NNC(=O)c3csc(N4CCOCC4)n3)c2c1 | inactive: -18.5% |  |
| O=[N+]([O-])c1cc(-c2csc(NC(CO)c3nc4ccccc4n3CCOCCO)n2)ccc1Cl (configuration not stated) | inactive: -20.7% |  |
| CCOc1ccc(S(=O)(=O)Nc2cccnc2)cc1 | inactive: -7.6% |  |
| Cc1c(C)n(CC(O)CN2CCOCC2)c2ccccc12 (configuration not stated) | inconclusive: 6.97% |  |
| CC(=O)Nc1nc2ccccc2n1Cc1ccccc1 |  | inconclusive [cytotoxic, single point] |
| Cc1cc(N=Nc2ccc(Cl)cc2)cc(CN2CCCC2)c1O |  | inconclusive [cytotoxic, single point] |
| CCOC(=O)Cc1csc(NC(=S)NC(=O)c2cccc([N+](=O)[O-])c2)n1 | inactive: 17.2% |  |
| CC(C)C[C@@H](CO)N(Cc1ccccc1)S(=O)(=O)N(Cc1ccccc1)[C@H](CO)CC(C)C |  | inconclusive [cytotoxic, single point] |
| CCCCCCCn1ccc(=N)cc1 |  | inconclusive [cytotoxic, partial curve] |
| COc1ccc(Cc2c(C3CCCCC3)nc3c4ccccc4ccn23)c(C)c1 |  | inconclusive [cytotoxic, single point] |
| Fc1ccccc1COc1ccc(Br)cc1CNCc1ccncc1 |  | inconclusive [cytotoxic, single point] |
| CC(C)(C)Cc1nc2ccccc2n1CCc1ccccc1 |  | inconclusive [cytotoxic, single point] |
| O=C(CCN1N=C(c2ccccc2)CCC1=O)NCC1COc2ccccc2O1 (configuration not stated) | inactive: 3.15% |  |
| Cc1nc2c(=O)n(C)c(=O)n(C)c2nc1Cl |  | active: 5.8 µM |
| CCCCC(=O)Nc1ccc(NC(=S)NC(=O)CCCCl)cc1OC | inactive: -17.1% |  |
| CN1CCN(NC(=O)c2ccc(COc3ccccc3Br)o2)CC1 | inactive: -2.74% |  |
| CCOc1cc(/C=N/NC(=O)c2cccnc2)ccc1OCc1ccc(C(=O)OC)o1 | inactive: 7.46% |  |
| COC(C(=O)Nc1ccc(S(=O)(=O)Nc2ccc(F)cc2)cc1)c1ccccc1 (configuration not stated) |  | inconclusive [cytotoxic, partial curve] |
